# The campaign covered roughly 360,000 compounds. About 16,000 (4.4%) were called active. Inconclusive results, whose numbers are uncertain, are shown with a selection of clear calls. Calls follow the shape of the dose curve; as a rule, active = well fitted inhibition curve with a large enough effect; inconclusive = small, poorly fitted or top-dose-only effect; inactive = no such curve, though single readings can be large or run the other way. Potencies of inconclusive entries are doubtful fits and often do not repeat.
# Biological target: Bromodomain adjacent to zinc finger domain protein 2B (Homo sapiens) (UniProt Q9UIF8)
# Experiment: qHTS Assay for Inhibitors of BAZ2B; also: nearly all actives have a fitted effect of over 60% in size
# Details: AlphaScreen BAZ2B-H3K14Ac peptide displacement; activity change, negative = inhibition: at 114 µM (top of the series) unless noted
# In short: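 AlphaScreen displacement: compounds (up to 110uM) incubated 30 min at room temperature with a preformed 50 nM BAZ2B/50 nM biotinylated H3K14Ac peptide complex in PBS pH 7.4 with Tween-20. Donor and acceptor beads at 10 ug/mL final added, 20 min light-protected before reading.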
# % is scaled to controls: 0 for no effect and ±100 for the full control effect; potency is read from the fitted curve at half-maximal effect; tags tell the direction and shape of the fitted curve.
# Sequence of UniProt Q9UIF8 (Q9UIF8 whole entry, looked up, the tested form may be a part): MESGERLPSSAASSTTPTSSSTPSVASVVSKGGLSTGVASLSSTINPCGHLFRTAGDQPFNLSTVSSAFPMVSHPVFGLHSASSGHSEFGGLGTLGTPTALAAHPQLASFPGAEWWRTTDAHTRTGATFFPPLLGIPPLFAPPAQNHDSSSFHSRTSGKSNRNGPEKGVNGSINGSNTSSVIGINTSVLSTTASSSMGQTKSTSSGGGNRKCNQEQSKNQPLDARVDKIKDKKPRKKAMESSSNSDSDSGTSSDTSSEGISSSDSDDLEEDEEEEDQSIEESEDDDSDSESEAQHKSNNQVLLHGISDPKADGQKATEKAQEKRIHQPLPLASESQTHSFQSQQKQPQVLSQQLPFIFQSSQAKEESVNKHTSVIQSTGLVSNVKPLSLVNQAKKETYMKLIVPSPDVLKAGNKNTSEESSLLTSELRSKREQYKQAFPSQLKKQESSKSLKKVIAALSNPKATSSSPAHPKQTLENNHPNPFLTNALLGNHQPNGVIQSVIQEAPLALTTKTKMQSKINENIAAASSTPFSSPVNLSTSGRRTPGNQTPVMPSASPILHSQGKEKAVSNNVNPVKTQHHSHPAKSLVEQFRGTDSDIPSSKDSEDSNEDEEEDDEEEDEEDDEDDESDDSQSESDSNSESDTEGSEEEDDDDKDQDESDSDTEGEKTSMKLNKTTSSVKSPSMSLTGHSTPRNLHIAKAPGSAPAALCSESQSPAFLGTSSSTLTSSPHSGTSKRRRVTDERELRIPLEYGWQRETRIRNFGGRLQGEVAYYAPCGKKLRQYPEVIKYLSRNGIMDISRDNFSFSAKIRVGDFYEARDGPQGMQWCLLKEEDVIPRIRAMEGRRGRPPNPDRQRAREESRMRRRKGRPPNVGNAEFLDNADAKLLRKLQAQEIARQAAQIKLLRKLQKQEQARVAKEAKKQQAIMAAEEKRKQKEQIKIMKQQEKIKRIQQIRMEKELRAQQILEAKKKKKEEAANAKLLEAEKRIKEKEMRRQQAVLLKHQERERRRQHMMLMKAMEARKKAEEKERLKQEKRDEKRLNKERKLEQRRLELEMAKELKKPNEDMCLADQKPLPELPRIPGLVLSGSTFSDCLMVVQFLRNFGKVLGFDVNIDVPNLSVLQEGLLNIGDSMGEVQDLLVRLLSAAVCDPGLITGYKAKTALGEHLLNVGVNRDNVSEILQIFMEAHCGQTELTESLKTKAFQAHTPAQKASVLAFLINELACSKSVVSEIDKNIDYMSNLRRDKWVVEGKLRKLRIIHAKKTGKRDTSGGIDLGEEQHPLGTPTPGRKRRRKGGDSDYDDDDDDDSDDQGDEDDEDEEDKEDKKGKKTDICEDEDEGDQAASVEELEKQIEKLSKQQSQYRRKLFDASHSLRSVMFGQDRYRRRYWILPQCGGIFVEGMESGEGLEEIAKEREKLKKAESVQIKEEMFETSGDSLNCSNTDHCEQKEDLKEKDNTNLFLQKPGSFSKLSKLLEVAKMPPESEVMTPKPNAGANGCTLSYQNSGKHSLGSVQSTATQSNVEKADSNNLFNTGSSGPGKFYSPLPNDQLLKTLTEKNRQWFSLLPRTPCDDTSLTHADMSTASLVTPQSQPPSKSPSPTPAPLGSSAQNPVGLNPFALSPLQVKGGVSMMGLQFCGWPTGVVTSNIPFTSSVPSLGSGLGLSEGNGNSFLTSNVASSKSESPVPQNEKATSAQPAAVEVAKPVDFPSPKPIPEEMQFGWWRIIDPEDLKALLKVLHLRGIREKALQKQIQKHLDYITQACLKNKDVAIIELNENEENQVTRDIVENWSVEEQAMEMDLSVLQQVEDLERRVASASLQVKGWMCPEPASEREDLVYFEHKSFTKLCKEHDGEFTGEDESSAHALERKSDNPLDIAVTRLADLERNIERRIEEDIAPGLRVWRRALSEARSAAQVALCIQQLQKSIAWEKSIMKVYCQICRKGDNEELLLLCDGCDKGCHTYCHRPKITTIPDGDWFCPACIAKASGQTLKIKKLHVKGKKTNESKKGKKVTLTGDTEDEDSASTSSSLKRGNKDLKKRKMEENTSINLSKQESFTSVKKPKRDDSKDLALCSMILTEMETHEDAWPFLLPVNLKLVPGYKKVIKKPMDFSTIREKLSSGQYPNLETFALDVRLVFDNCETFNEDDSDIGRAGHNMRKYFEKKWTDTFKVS
SMILES,Potency,"activity change, negative = inhibition"
O=c1c2c([N+](=O)[O-])cc([N+](=O)[O-])cc2nc2ccccn12,"inconclusive: 70.8 µM [inhibitor, single point]",
CC1CCN(CC(O)CN2c3ccccc3Sc3ccccc32)CC1 (configuration not stated),"inconclusive: 44.7 µM [inhibitor, partial curve]",
Cc1ccc(-c2nnn(CC(=O)N(c3ccccc3)C(C(=O)NC3CCCC3)c3ccco3)n2)o1 (configuration not stated),"inconclusive: 89.1 µM [inhibitor, single point]",
O=[N+]([O-])c1ccccc1/C=C/C=N/Nc1nc(N2CCCCC2)nc(N2CCCCC2)n1,"inconclusive: 39.8 µM [inhibitor, partial curve]",
O=C(CSc1nnc(CNc2ccc(F)cc2)o1)N1CCCc2ccccc21,"inconclusive: 79.4 µM [inhibitor, single point]",
CC(=O)c1cccc(NC(=O)COC(=O)c2ccccn2)c1,"inconclusive: 89.1 µM [inhibitor, single point]",
Cc1ccc(NC(=O)c2c(C)nn(-c3ccccc3)c2-n2cccc2)c(Cl)c1,,inactive: -0.731%
Cc1ccc(NC(=S)NCc2cccn2C)cc1,"inconclusive: 89.1 µM [inhibitor, single point]",
Cc1ccc(NC(=O)C2CCCN2S(=O)(=O)c2ccc3nc(-c4ccccc4)[nH]c3c2)cc1C (configuration not stated),active: 79.4 µM,
Cc1cccc(NC(=O)Nc2nnc(N3CCCC3)s2)c1,,inactive: -25.9%
CCOC(=O)c1cnc2ccc(C)cc2c1Sc1ccccc1C(=O)OC,,inactive: -6.92%
CC1CCN(C(=S)NC(=O)c2cccs2)CC1,,inactive: -18.8%
Cc1ccc(NC(=O)CSc2nc3ccccc3n2CC(=O)N(C)C2CCCCC2)cc1C,"inconclusive: 100 µM [inhibitor, single point]",
Cc1nc2c(oc3ccccc32)c(=O)o1,"inconclusive: 79.4 µM [inhibitor, single point]",
Cc1ccc(-c2nn(-c3ccccc3)cc2C(=O)O)o1,"inconclusive: 44.7 µM [inhibitor, partial curve]",
NC(=O)c1ccsc1NC(=O)COC(=O)c1ccccn1,"inconclusive: 89.1 µM [inhibitor, single point]",
Cc1ccccc1C(=O)Nc1ccccc1-c1nc(-c2ccccc2)no1,"inconclusive: 100 µM [inhibitor, single point]",
CCCCNCCOCCOc1ccccc1-c1ccccc1,"inconclusive: 89.1 µM [inhibitor, single point]",
CCC(C)C(=O)Nc1nc(C)c(-c2csc(Nc3cc(Cl)ccc3OC)n2)s1 (configuration not stated),"inconclusive: 50.1 µM [inhibitor, partial curve]",
C=CCOc1ccc(C(c2c(C(=O)O)[nH]c3ccccc23)c2c(C(=O)O)[nH]c3ccccc23)cc1,active: 50.1 µM,
O=[N+]([O-])c1cccc(NN=Nc2ccccc2)c1,"inconclusive: 39.8 µM [inhibitor, partial curve]",
CN1CCN(Cc2ccc(-c3ccc(Cl)cc3)o2)CC1,"inconclusive: 89.1 µM [inhibitor, single point]",
COC(CNC(=O)c1cc(C)nn1-c1ccccc1)OC,,inactive: 8.93%
CC(C)N1CCN(S(=O)(=O)c2ccc3ccccc3c2)CC1,"inconclusive: 89.1 µM [inhibitor, single point]",

SMILES,Potency,"activity change, negative = inhibition"
C/C(=N\NC(=O)c1ccc(CN2CCc3ccccc3C2)cc1)c1ccccc1O,active: 2.82 µM,
Cc1ccc(C(=O)Nc2oc(-c3ccccc3)cc2C#N)cc1,"inconclusive: 89.1 µM [inhibitor, single point]",
CCOCCCNC(=S)N1CCN(c2nc(-c3ccccc3)cs2)CC1,active: 50.1 µM,
Oc1ccccc1/C=N/N1CCN(c2ccccn2)CC1,"inconclusive: 50.1 µM [inhibitor, partial curve]",
CC(C)CN1C(=O)c2ccc(C(=O)Nc3ccccc3C(=O)O)cc2C1=O,,inactive: 4.84%
Cc1ccc(NC(=O)C2C3CCCCC32)cc1[N+](=O)[O-] (configuration not stated),active: 20 µM,
Cc1ccc(CNC(=O)CSCc2nc(-c3cccc(C)c3)oc2C)cc1,,inactive: 0.149%
Cc1nn(-c2ccc(N3CCCCC3)nn2)c(C)c1CCC(=O)Nc1ccc(F)c(F)c1,"inconclusive: 22.4 µM [inhibitor, single point]",
COC(=O)[C@@H]1[C@@H](C#N)C2(c3ccccc3-c3ccccc32)N(c2ccc(Cl)cc2)N1C#N,"inconclusive: 31.6 µM [inhibitor, full curve]",
COc1ccc(N/N=C(/Oc2ccc([N+](=O)[O-])cc2)C(C)=O)cc1,"inconclusive: 44.7 µM [inhibitor, partial curve]",
O=C(COc1ccc(Br)cc1)Nc1nnc(C2CC2)s1,,inactive: -0.531%
Oc1cccc(Nc2ncnc3c2oc2ccccc23)c1,"inconclusive: 89.1 µM [inhibitor, single point]",
CCN(CC)C(=O)CSc1ncnc2c(-c3cccs3)nsc12,"inconclusive: 89.1 µM [inhibitor, single point]",
COc1ccc(CNC(=O)C(=O)NCC(c2cccs2)S(=O)(=O)c2cccs2)cc1 (configuration not stated),,inactive: -10.2%
Cc1ccc(-c2nc(N)sc2C)cc1,"inconclusive: 79.4 µM [inhibitor, single point]",
COc1ccc(CCNC(=O)CCCc2nnc3n(C)c(=O)c4sccc4n23)cc1OC,"inconclusive: 89.1 µM [inhibitor, single point]",
O=C(c1cc([N+](=O)[O-])cc([N+](=O)[O-])c1)N1CCCc2ccccc21,"inconclusive: 79.4 µM [inhibitor, single point]",
CC(C)NCC(=O)NC12CC3CC(CC(C3)C1)C2,"inconclusive: 28.2 µM [inhibitor, single point]",
COCCCNc1oc(-c2ccccc2OC)nc1C#N,,inactive: 19.5%
Cc1cccc(NC(=O)COc2ccc3oc4c(c3c2)CCCC4)c1,"inconclusive: 28.2 µM [inhibitor, full curve]",
CCCOc1ccc(/C=N/n2nnnc2N)cc1OC,"inconclusive: 44.7 µM [inhibitor, single point]",
CCc1ccccc1N(CC)C(=O)Cn1nc(Cc2ccncc2)c2ccccc2c1=O,,inactive: -15.6%
Cc1cc(C(=O)CN2C(=O)NC(c3ccccc3)(c3ccccc3)C2=O)c(C)n1Cc1ccco1,,inactive: -35.7%
O=C(Nc1nccs1)C(c1ccccc1)N1CCCC1 (configuration not stated),"inconclusive: 89.1 µM [inhibitor, single point]",

SMILES,Potency,"activity change, negative = inhibition"
CCc1nnc(NS(=O)(=O)c2ccc(NC(=O)/C=C/c3ccc(OC)cc3OC)cc2)s1,active: 56.2 µM,
CCOC(=O)C1CCN(C(=O)COC(=O)c2ccc3[nH]c4c(c3c2)CCCC4)CC1,"inconclusive: 44.7 µM [inhibitor, partial curve]",
Cc1sccc1C1C(C#N)=C(N)SC(N)=C1C#N,,inactive: -35.4%
COc1cccc(NC(=O)Cc2nnc(SCC(=O)c3ccccc3)n2C)c1,,inactive: 10.7%
CSc1ccc(C(=S)N2CCN(Cc3ccccc3)CC2)cc1,"inconclusive: 31.6 µM [inhibitor, full curve]",
Cc1ccccc1-n1nc2c(c1NC(=O)c1cccc(F)c1)CS(=O)C2 (configuration not stated),,inactive: 9.2%
CCCC1=NN(C(=O)C(=O)Nc2ccc(Br)cc2)C(O)(C(F)(F)F)C1 (configuration not stated),"inconclusive: 50.1 µM [inhibitor, partial curve]",
O=[N+]([O-])c1ccccc1N/N=C/c1cc2ccccc2nc1Cl,"inconclusive: 63.1 µM [inhibitor, partial curve]",
Cc1ccccc1C(=O)O/N=C(\N)c1cccc([N+](=O)[O-])c1,"inconclusive: 15.8 µM [inhibitor, partial curve]",
CC(C)N1C(=O)/C(=C/c2nc3ccccc3c(=O)n2-c2ccccc2)c2ccccc21,active: 35.5 µM,
CC(C)NC(=O)C(Sc1ccccc1)c1ccccc1 (configuration not stated),,inactive: 5.16%
Cc1cc(/C=C2/NC(=O)NC2=O)c(C)n1-c1ccc(C#N)cc1,"inconclusive: 50.1 µM [inhibitor, partial curve]",
COc1cc(/C=C/C(=O)OCC(=O)N2CCN(S(=O)(=O)c3ccc(C)cc3C)CC2)ccc1O,"inconclusive: 79.4 µM [inhibitor, single point]",
c1ccc(CNc2nc(NCc3ccco3)nc(N3CCOCC3)n2)cc1,"inconclusive: 50.1 µM [inhibitor, partial curve]",
COC1CCCCC1Nc1cccc(SC)c1 (configuration not stated),,inactive: -18.4%
CCC(=O)c1ccc(OCC(O)CN2CCN(C(c3ccccc3)c3ccccc3)CC2)cc1 (configuration not stated),"inconclusive: 70.8 µM [inhibitor, single point]",
CCOc1ccc2c(c1)c(=O)c(S(=O)(=O)c1ccc(CC)cc1)cn2Cc1cccc(Cl)c1,,inactive: -9.77%
CCCC(=O)Nc1ccc(C(=O)NNC(=O)c2ccccc2Br)cc1,,inactive: 9.75% [at 57.1 µM]
CCOC(=O)C1(Cc2cccc(Cl)c2)CCCN(C(=O)c2ccco2)C1 (configuration not stated),,inactive: -15.5% [at 57.1 µM]
COc1ccc(OC)c(NC(=O)CS(=O)(=O)Cc2nc(-c3ccc(C)cc3)oc2C)c1,"inconclusive: 25.1 µM [inhibitor, single point]",
Cc1cccc(NC(=O)N2CC=C(c3c[nH]c4ccccc34)CC2)c1C,"inconclusive: 79.4 µM [inhibitor, single point]",
COc1ccc(C(=O)NC(=S)Nc2ccc(N3CCOCC3)c(Cl)c2)cc1[N+](=O)[O-],"inconclusive: 28.2 µM [inhibitor, full curve, poor fit]",
Cc1ccccc1C(=O)Nc1cccc(-c2cn3ccccc3n2)c1,"inconclusive: 79.4 µM [inhibitor, single point]",
CCN(CC)C(=O)C1CCCN(c2ncnc3c2c(-c2ccccc2)cn3-c2cccc(C)c2)C1 (configuration not stated),"inconclusive: 11.2 µM [inhibitor, full curve]",

# From PubChem BioAssay AID504333 (National Center for Advancing Translational Sciences (NCATS), 2011)
